Measured values as given in US20160046957.

Target: human coagulation Factor X (UniProt P00742)
Chain of UniProt P00742 (P00742 whole entry, looked up): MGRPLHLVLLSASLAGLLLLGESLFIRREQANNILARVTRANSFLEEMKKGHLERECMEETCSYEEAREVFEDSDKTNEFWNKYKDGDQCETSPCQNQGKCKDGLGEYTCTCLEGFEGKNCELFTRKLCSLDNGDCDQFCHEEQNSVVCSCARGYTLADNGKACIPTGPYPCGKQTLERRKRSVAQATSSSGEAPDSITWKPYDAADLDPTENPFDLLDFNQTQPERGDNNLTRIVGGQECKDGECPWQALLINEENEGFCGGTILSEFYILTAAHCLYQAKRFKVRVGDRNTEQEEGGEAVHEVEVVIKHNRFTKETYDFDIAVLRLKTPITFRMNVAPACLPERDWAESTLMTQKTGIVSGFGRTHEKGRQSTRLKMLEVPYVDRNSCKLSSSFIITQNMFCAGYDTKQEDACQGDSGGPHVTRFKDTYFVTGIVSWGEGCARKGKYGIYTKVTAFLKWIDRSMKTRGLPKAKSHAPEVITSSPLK

human furin (sequence left out)
degree of processed FX against concentration of secreted furin (FIG. 5): only partial processing of FX is feasible with low concentrations of secreted furin (<20 U/mL), whereas higher levels of secreted furin correlate with better processed FX
